Measured values: the BET-seq Pho4 binding data (Le et al. 2018)
This is one part of the list. These are noisy estimates, calculated here from bound and input reads.

Each sequence was assayed against T1, Pho4 (S. cerevisiae) (UniProt P07270) (assay: relative binding free energy (BET-seq); higher = weaker binding). Conditions: reference: library average.
T1 sequence: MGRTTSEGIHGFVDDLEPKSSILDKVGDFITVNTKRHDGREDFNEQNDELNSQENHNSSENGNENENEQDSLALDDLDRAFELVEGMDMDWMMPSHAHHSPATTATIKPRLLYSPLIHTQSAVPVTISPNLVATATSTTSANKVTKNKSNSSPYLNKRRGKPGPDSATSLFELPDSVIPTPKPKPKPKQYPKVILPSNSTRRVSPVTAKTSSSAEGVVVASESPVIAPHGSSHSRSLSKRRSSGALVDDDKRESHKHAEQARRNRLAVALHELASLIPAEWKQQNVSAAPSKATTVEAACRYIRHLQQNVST

Sequence | relative binding free energy [kcal/mol]
ATTGTCACGTGCCAGT | 0.09
ATCTTCACGTGGTTGA | 0.17
AAGTACACGTGGGGTA | -0.15
TATGACACGTGAGTTT | 0.24
TTAGGCACGTGGCTGG | -0.15
TGGTGCACGTGTAAGT | 0.11
AGTGACACGTGCGCGG | -0.17
TTTATCACGTGCGATG | 0.09
AATGCCACGTGGGTTA | -0.09
AGATTCACGTGTGAAG | 0.23
TATTACACGTGGTATA | -0.04
AGGTCCACGTGTTTGA | -0.02
ATAATCACGTGGTGAT | -0.08
TCGTTCACGTGTAAGT | 0.28
AATCGCACGTGGGAGG | -0.21
AGGAGCACGTGGGTAC | -0.23
CGGTGCACGTGTTTCG | 0.05
ACGGGCACGTGGATGG | -0.16
AGCGTCACGTGTAGGT | 0.04
AGCTTCACGTGGTTTG | 0.23
TTTCTCACGTGGTATA | 0.3
TATAGCACGTGGGTGC | -0.23
CTGTTCACGTGTTCGG | 0.29
AATAGCACGTGATGGA | 0.15
AGGGGCACGTGTGACT | -0.12
TTGGCCACGTGTGTCT | -0.04

Sequence | relative binding free energy [kcal/mol]
GTGTTCACGTGGCTGT | 0.38
GGAAGCACGTGCGTTG | -0.01
TTACGCACGTGCTGTT | -0.23
TGGGCCACGTGGAGAT | -0.12
GGGTACACGTGAAAAG | 0.25
CATTTCACGTGTTAGT | 0.23
ATAGGCACGTGTAGGG | -0.03
AGAGGCACGTGTATGC | -0.08
TAGGTCACGTGCTATT | 0.06
AGTAGCACGTGTCGGG | -0.03
TGGAGCACGTGAGATA | 0.15
TTAAACACGTGTTGAA | 0.05
TTCGTCACGTGTTGAT | 0.03
GTTGACACGTGCTGGA | 0
TAAAGCACGTGGATTG | -0.06
CGAGTCACGTGCTGGT | 0.14
ATTTCCACGTGTTATG | 0.07
GGGTACACGTGATATT | 0.23
GTATTCACGTGCGGTA | 0.25
ACCGGCACGTGTAGGG | -0.09
CGAAGCACGTGTAGTG | -0.06
CGTGGCACGTGGGTAT | -0.18
GGGTTCACGTGTTTTA | 0.37
GGGAGCACGTGACTGT | 0.14
TAAGGCACGTGATGAA | -0.01
GAGGTCACGTGGGAGG | 0.07

Sequence | relative binding free energy [kcal/mol]
GCGGTCACGTGGTAGT | 0.07
TGGTGCACGTGGAGGC | 0.04
TATGTCACGTGGAGTT | 0.06
TTCGTCACGTGTGTAA | 0.16
GTGACCACGTGTAGTG | -0.05
CACAGCACGTGGGGGG | -0.31
AGTAGCACGTGATGTT | 0.03
CGGATCACGTGATAGT | 0.32
GAATGCACGTGGCAGG | -0.04
CGATACACGTGCGGGT | 0.15
GGTTGCACGTGGTGCG | -0.04
GTCGGCACGTGAGCGT | 0.21
TGGCGCACGTGCAGTG | -0.14
ATTGGCACGTGTTAGC | -0.11
CGGGTCACGTGGTTTA | 0.08
GGTATCACGTGTAGAG | 0.21
GCGTGCACGTGGATTT | 0.1
TTAGGCACGTGTCGTG | 0.03
GAGTACACGTGGCAGG | -0.02
AAAGGCACGTGTGTGG | -0.16
ATGTACACGTGTGATG | 0.04
AGCCTCACGTGGGAGG | 0.14
TTTTACACGTGTACGT | 0.03
TGTAACACGTGTGGAT | -0.05
TTGGCCACGTGCTTAG | -0.04
CTGCCCACGTGGTGGG | -0.01

Sequence | relative binding free energy [kcal/mol]
TCTAACACGTGAGTGG | 0.18
CTTAGCACGTGCGTGG | -0.12
GAGGGCACGTGATGTA | 0.06
TGGTACACGTGGTAGA | 0.02
AGGCGCACGTGGTTTT | -0.26
GAGTTCACGTGATGAG | 0.37
AACGGCACGTGTATTG | 0.02
ATGGGCACGTGTAAGT | 0.02
TAAGTCACGTGTTAAA | 0.13
ACTTACACGTGTTGGG | 0.13
TGAATCACGTGGGCTT | -0.01
GGTGGCACGTGTTGCC | -0.08
TGTAGCACGTGGGCCA | -0.1
TCGTGCACGTGGGCTG | -0.17
TAGGGCACGTGTAAAG | 0.02
CGGATCACGTGTTTTG | 0.1
AATGACACGTGGGTTT | 0.07
ATGTCCACGTGGGTGC | -0.09
TAAGTCACGTGAGATG | 0.1
GGTAACACGTGCTAGG | -0.05
CAAGGCACGTGAGGGT | 0.09
TTAATCACGTGGATAG | -0.05
ATAGACACGTGAATGT | 0.32
GTCGTCACGTGGGGTA | -0.03
GTGATCACGTGTGTCA | 0.14
GGCGTCACGTGTTAGT | 0.06

Sequence | relative binding free energy [kcal/mol]
TGTGTCACGTGTCTGA | 0.13
ATTTACACGTGCGATA | 0.25
CGGGTCACGTGTAGGC | 0.23
TGGGGCACGTGCATAG | -0.22
TGGGGCACGTGCGGAT | -0.18
ATGTGCACGTGTTAGC | -0.2
GAAGGCACGTGAGTAG | 0.28
GTTTTCACGTGACAGG | 0.42
ATGATCACGTGTTAAG | 0.17
GTTGGCACGTGTACGG | -0.1
GGGGGCACGTGTGGCA | -0.06
ATTTGCACGTGGGGAT | -0.01
CTTGCCACGTGTGGTG | -0.11
GTTGTCACGTGCGGTT | 0.09
TCTTTCACGTGTGGGT | 0.32
GGTCTCACGTGTATAG | 0.39
TTGGGCACGTGCAAGG | -0.16
GAGCACACGTGGGTGT | -0.18
TGGTTCACGTGGACGG | 0.22
TAAATCACGTGGTCGT | 0.09
TTCAGCACGTGTGCTT | 0.02
TTCGGCACGTGTGCTT | -0.03
GTCGTCACGTGTAGGA | 0.04
GAGTACACGTGTGGAA | 0.29
GGCTTCACGTGCGGGG | 0.16
GTGGTCACGTGGACAT | 0.13

Sequence | relative binding free energy [kcal/mol]
TATGACACGTGGATTG | -0.02
TGGTACACGTGGTTGG | 0
GGTATCACGTGAGCTG | 0.3
AGTTTCACGTGTGTAT | 0.28
AATGTCACGTGTGCGT | 0.1
GGAGCCACGTGTCGGG | -0.08
ACTGGCACGTGGTTTT | -0.21
AGGGTCACGTGGAGTA | 0.24
GGGGCCACGTGGGCGC | -0.11
AGTGGCACGTGGCTTT | -0.19
TTTGACACGTGCGTGT | -0.11
GATTTCACGTGTAGAA | 0.32
TTAGACACGTGTAGAG | 0.12
ATAGGCACGTGATATT | -0.17
TCGGTCACGTGAGTAG | 0.47
GGTTGCACGTGATTAT | 0.19
TTCGTCACGTGTGGGG | 0.08
GGGAGCACGTGCGGAT | -0.11
GGATACACGTGGGTAG | -0.01
AGATGCACGTGATGGT | 0.13
CGTGGCACGTGATTTA | 0.09
GTCATCACGTGAAGAG | 0.5
GTTGTCACGTGCCTTG | 0.05
TTCCGCACGTGGTTAT | 0
AATGGCACGTGATCGG | -0.2
GGTTGCACGTGATCGC | 0.25

Sequence | relative binding free energy [kcal/mol]
GAGTGCACGTGCTAGG | 0
CTGGGCACGTGATGTT | 0.05
GTTAGCACGTGTGTAT | 0.09
TATCTCACGTGGGTTA | 0.06
AGTTTCACGTGGTGGC | 0.18
ATTAGCACGTGAAGGC | 0.34
GGGTACACGTGGAATT | 0.12
GTGGTCACGTGGGAAA | 0.13
AAATCCACGTGAGGGG | 0.24
TGCTTCACGTGAATTG | 0.42
TATAACACGTGTCGGT | 0.03
TTTAGCACGTGGGAAG | -0.02
TCGAGCACGTGTGTAG | -0.13
TGTGGCACGTGCGGAA | -0.18
GTTGTCACGTGCAGGA | 0.13
CTGGGCACGTGAGGCG | -0.08
AGGGGCACGTGGCCTG | -0.33
ATATGCACGTGCGGGT | -0.03
TCTGTCACGTGATTAG | 0.24
TGGAACACGTGCTTGT | 0
AGTGGCACGTGCGAAT | -0.01
ATTAGCACGTGGCATG | -0.19
TGGACCACGTGAGGTT | 0.19
ATTGTCACGTGGTATG | 0
AATTGCACGTGGTGCA | -0.15
GTATGCACGTGTGAAT | -0.02

Sequence | relative binding free energy [kcal/mol]
GTGAGCACGTGAGTAG | 0.22
AGACACACGTGGGGGT | -0.08
GGGTGCACGTGTCTCG | -0.01
TGGTCCACGTGATGGT | 0.18
ATAAGCACGTGTTGGC | -0.04
TTAGTCACGTGGAGAA | 0.12
TGGGGCACGTGAAGCG | 0.03
GAAGGCACGTGTGGTG | -0.07
GGTGACACGTGAGGAT | 0.21
TTAAACACGTGGGGAG | 0
ATTTACACGTGAGTTT | 0.26
AAGGTCACGTGAAGTA | 0.28
GGGTTCACGTGTGGGA | 0.37
TTGGACACGTGTTGTC | -0.02
ATCAACACGTGGGGGA | -0.07
GTTGGCACGTGGGGTA | -0.24
TTTTTCACGTGTTCGG | 0.31
TTAGGCACGTGGCGCT | -0.04
GATACCACGTGTTTGT | -0.04
CCGGTCACGTGGGTGC | -0.14
TTAGTCACGTGTTGGT | 0.16
GATAGCACGTGAGTAT | 0.3
TGGGTCACGTGCCGTC | 0.1
CAGGGCACGTGAAGTG | 0.31
GGTATCACGTGTGATA | 0.31
GTTAACACGTGAGTGA | 0.18

Sequence | relative binding free energy [kcal/mol]
GCTGGCACGTGGATTA | 0.13
TTTGGCACGTGGGCGC | -0.4
AGTGTCACGTGTCGTG | 0.07
GGCTCCACGTGGGTTT | -0.01
GTTGGCACGTGCGGAC | -0.05
AGTATCACGTGATAGG | 0.11
TATTACACGTGTAGGG | -0.04
TAGAGCACGTGACGGT | 0
GTAGTCACGTGGTCTT | 0.06
TGGGACACGTGATTTG | 0.17
AGTGACACGTGTTTGG | -0.04
AGTGTCACGTGTGGGC | 0.12
TTAATCACGTGTGTGA | 0.09
GGGGACACGTGGTATC | -0.02
TGCTTCACGTGAAGGT | 0.21
TGGACCACGTGGCGTG | -0.05
GTATGCACGTGGTGCG | 0.03
ACTTTCACGTGTTTTT | 0.32
TCGAGCACGTGGTTAG | -0.19
GTGTACACGTGGTGGT | -0.06
TTGGGCACGTGAGCAT | -0.05
TTCGGCACGTGTGGAA | 0.01
